Measured values from patent US20140350081A1, “INSECT G-COUPLED RECEPTORS USEFUL AS TARGETS FOR INSECTICIDES AND COMPOUNDS AND REAGENTS IDENTIFIED USING THE SAME” (priority 2011, published 2014).
Read-outs that look alike come from different tables or passages of the source. Some entries share one result that the patent states for a list of compounds. For some assays here: At least one compound was matched to its structure with a doubt left. Some compounds share one range, which may span the group rather than tell each member.

Key:
[1] = test system: adult male Blatella germanica; assay: Cockroach contact assay (topical application); type: in vivo; conditions: within three to five days post dose
Text: A series of whole organism bioassays was developed to further evaluate the toxicity of chemistries to a range of agricultural, veterinary and public health pests and non-target insects (Tables 12 and 13). These assays are designed to rapidly explore the biological activity spectrum of chemistries as well as to facilitate initial investigations of the mode of action of insecticidal compounds. Briefly, assays were developed for the German cockroach (Blatella germanica, urban pest), termite (Reticulitermes flavipes; urban pest), lone star tick (Amblyomma americana; veterinary and public health pest), soybean aphid (Aphis glycines, agricultural pest) and honeybee (Apis mellifera; beneficial, non-target insect). The assays were designed to test the toxicity and speed of kill of multiple chemistries on contact. Each of these assays was performed as a single point dose experiment in triplicate using either topical application of compound to the ventral thorax ([…]; 50-80 μg effective dose depending on compound) as is the case for our cockroach and honeybee assays, or 10 second immersion in a solution of the compound diluted in water or DMSO:EtOH to a final concentration of 100 μM. The assays were conducted in 24-well plate format with mortality assessment following incubation at 22° C. as described above. Commercial insecticides were incorporated in these assays to provide a positive control and permit initial comparative analyses. Lead chemistries identified in our in vivo screen have been evaluated in the cockroach and termite assays.

[2] = test system: Ae. aegypti L3 larvae; conditions: 400 μM, three independent experiments
[3] = target: AaDOP2 (Aedes aegypti, UniProt H6D5H2); assay: LOPAC1280 antagonist screen in HEK-CRELuc-Aadop2 cells; type: cell-based; conditions: LOPAC1280 screen (Meyer et al., 2012)
Chain of AaDOP2 (H6D5H2 entry or part of it): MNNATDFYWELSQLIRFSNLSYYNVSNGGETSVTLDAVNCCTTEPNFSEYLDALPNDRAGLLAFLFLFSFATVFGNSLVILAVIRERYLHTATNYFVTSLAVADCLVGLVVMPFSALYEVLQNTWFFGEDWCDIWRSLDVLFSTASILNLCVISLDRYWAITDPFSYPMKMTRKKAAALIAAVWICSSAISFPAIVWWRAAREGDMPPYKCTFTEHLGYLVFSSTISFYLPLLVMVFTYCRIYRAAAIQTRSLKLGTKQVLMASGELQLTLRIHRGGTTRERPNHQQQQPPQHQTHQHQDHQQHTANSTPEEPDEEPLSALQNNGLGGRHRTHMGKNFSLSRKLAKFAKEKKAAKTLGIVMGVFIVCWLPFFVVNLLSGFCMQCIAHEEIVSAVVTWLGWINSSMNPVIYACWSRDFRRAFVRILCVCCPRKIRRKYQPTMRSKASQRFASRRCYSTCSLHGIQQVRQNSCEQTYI

[4] = test system: adult Reticulitermes flavipes; assay: Termite immersion assay; type: in vivo; conditions: within five days
Text: A series of whole organism bioassays was developed to further evaluate the toxicity of chemistries to a range of agricultural, veterinary and public health pests and non-target insects (Tables 12 and 13). These assays are designed to rapidly explore the biological activity spectrum of chemistries as well as to facilitate initial investigations of the mode of action of insecticidal compounds. Briefly, assays were developed for the German cockroach (Blatella germanica, urban pest), termite (Reticulitermes flavipes; urban pest), lone star tick (Amblyomma americana; veterinary and public health pest), soybean aphid (Aphis glycines, agricultural pest) and honeybee (Apis mellifera; beneficial, non-target insect). The assays were designed to test the toxicity and speed of kill of multiple chemistries on contact. Each of these assays was performed as a single point dose experiment in triplicate using either topical application of compound to the ventral thorax (1 μl of a […] compound solution in 1:1 v:v DMSO:EtOH vehicle; 50-80 μg effective dose depending on compound) as is the case for our cockroach and honeybee assays, or 10 second immersion in a solution of the compound diluted in water or DMSO:[…] […] Lead chemistries identified in our in vivo screen have been evaluated in the cockroach and termite assays.

## CN(C)CCC=C1c2ccccc2CCc2ccccc21 [Amitriptyline, (3-(10,11-dihydro-5H-dibenzo[a,d][7]annulen-5-ylidene)-N,N-dimethylpropan-1-amine)]
[1]
  mortality of cockroaches on contact: 25-35%

## CCNC(=O)N1CCN(CCCC(c2ccc(F)cc2)c2ccc(F)cc2)CC1 [Amperozide, 4-[4,4-bis(4-fluorophenyl)butyl]-N-ethylpiperazine-1-carboxamide]
[2]
  Toxicity to Aedes aegypti larvae (mortality) 24 hours: 70-100%

## CN1CC2c3ccccc3Oc3ccc(Cl)cc3C2C1 (centres unmarked) [Asenapine]
[2]; listed as asenapine
  Toxicity to Aedes aegypti larvae (mortality) 24 hours: 70-100%

## CN1C2CCC1CC(OC(c1ccccc1)c1ccccc1)C2 (stereo not drawn) [Benztropine, (3-endo)-3-(diphenylmethoxy)-8-methyl-8-azabicyclo[3.2.1]octane]
[2]; listed as benztropine
  Toxicity to Aedes aegypti larvae (mortality) 24 hours: 70-100%

## CCn1cnc2c(Nc3cccc(Cl)c3)nc(N[C@@H]3CCCC[C@@H]3N)nc21.Cl [CGP-74514A hydrochloride]
[3]
  inhibition of the dopamine-stimulated activity of AaDOP2: < 25%

## CN(C)CCCN1c2ccccc2Sc2ccc(Cl)cc21 [Chlorpromazine]
[1]
  mortality of cockroaches on contact: 25-35%
[4]
  mortality of adult termites: 70-100%
[2]; listed as chlorpromazine
  Toxicity to Aedes aegypti larvae (mortality) 24 hours: 70-100%

## CN1CCN(C2=Nc3ccccc3Oc3ccc(Cl)cc32)CC1 [Loxapine, 2-Chloro-11-(4-methylpiperazin-1-yl)dibenzo[b,f][1,4]oxazepine]
[2]; listed as loxapine
  Toxicity to Aedes aegypti larvae (mortality) 24 hours: 70-100%

## CSc1ccc2c(c1)C(N1CCN(C)CC1)Cc1ccccc1S2 (centres unmarked) [Methiothepin, (1-methyl-4-(8-(methylthio)-10,11-dihydrodibenzo-[b,f]thiepin-10-yl)piperazines)]
[2]; listed as methiothepin
  Toxicity to Aedes aegypti larvae (mortality) 24 hours: 70-100%

## COc1cccc(-c2cc(=O)c3ccccc3o2)c1N [PD 98,059]
[3]
  inhibition of the dopamine-stimulated activity of AaDOP2: < 25%

## O=C(N[C@@H](Cc1ccccc1)C(=O)CCl)OCc1ccccc1 [Z-L-Phe chloromethyl ketone]
[3]
  inhibition of the dopamine-stimulated activity of AaDOP2: < 25%

## OCCN1CCN(CC/C=C2/c3ccccc3Sc3ccc(C(F)(F)F)cc32)CC1 [cis-(Z)-Flupenthixol, ((Z)-2-(4-(3-(2-(trifluoromethyl)-9H-thioxanthen-9-ylidene)propyl)piperazin-1-yl)ethanol)]
[1]
  mortality of cockroaches on contact: 25-35%
[2]; listed as cis-flupenthixol
  Toxicity to Aedes aegypti larvae (mortality) 24 hours: 70-100%
